About 110 (3.4%) of roughly 3,200 compounds showed an effect of 50% or more. The list shows a part of the results.
Each compound was assayed on T1, V. cholerae SAD30. Conditions: relative growth, OD600, LB; 25 µM; inhibitor.
T1 construct: SAD30
Design: species or system S. aureus MSSA476 (TSB) or V. cholerae SAD30 (LB); 384-well bacterial growth screen at 25 uM, OD600 relative to DMSO control

Point of comparison: `NS(=O)(=O)c1ccc(CNC(=O)CCl)cc1` [4-P12, 2-chloro-N-[(4-sulfamoylphenyl)methyl]acetamide], “% of control remaining” value 116.972%. Against it:
- C=CC(=O)Nc1nc(C)c(CC(C)C)s1 [1-J12, N-[4-methyl-5-(2-methylpropyl)-1,3-thiazol-2-yl]prop-2-enamide] — lower, 105.741%
- CC(C)c1ccc(C(C)NC(=O)CCl)cc1 (centres unmarked) [4-I05, 2-chloro-N-{1-[4-(propan-2-yl)phenyl]ethyl}acetamide] — lower, 99.2021%
- CC(Cl)C(=O)N1CCN(CC(F)(F)F)CC1C(C)C (centres unmarked) [7-C22, 2-chloro-1-[2-(propan-2-yl)-4-(2,2,2-trifluoroethyl)piperazin-1-yl]propan-1-one] — lower, 85.247%
- CC(Cl)C(=O)NC1CCN(CC(=O)Nc2ccccc2)CC1 (centres unmarked) [7-E13, 2-chloro-N-{1-[(phenylcarbamoyl)methyl]piperidin-4-yl}propanamide] — lower, 74.938%
- CN(C)S(=O)(=O)c1cc(NC(=O)CCl)ccc1Cl [5-E13, 2-chloro-N-[4-chloro-3-(dimethylsulfamoyl)phenyl]acetamide] — lower, 91.9618%
- C=CC(=O)N(C)CC(=O)N1CCn2cc(C(F)(F)F)nc2C1 [3-A04, N-methyl-N-{2-oxo-2-[2-(trifluoromethyl)-5H,6H,7H,8H-imidazo[1,2-a]pyrazin-7-yl]ethyl}prop-2-enamide] — lower, 103.382%
- NC(=O)c1coc(C(=O)CCl)c1 [10-C05, 5-(2-chloroacetyl)furan-3-carboxamide] — lower, 96.1621%
- COCC(C)NC(=O)C(C#N)=Cc1cc2cc(F)ccc2o1 (centres unmarked) [9-F04, 2-cyano-3-(5-fluoro-1-benzofuran-2-yl)-N-(1-methoxypropan-2-yl)prop-2-enamide] — lower, 89.123%
- N#CC(=Cc1ccccc1OC(F)F)C(=O)Nc1ccccc1Cl [9-M21, N-(2-chlorophenyl)-2-cyano-3-[2-(difluoromethoxy)phenyl]prop-2-enamide] — lower, 89.5309%
- CS(=O)(=O)N1CCCc2cc(C(=O)CCl)ccc21 [10-H19, 2-chloro-1-(1-methanesulfonyl-1,2,3,4-tetrahydroquinolin-6-yl)ethan-1-one] — lower, 22.9106%
- CN(Cc1ccc(N(C)C)cc1)C(=O)CCl.Cl [5-F06, 2-chloro-N-{[4-(dimethylamino)phenyl]methyl}-N-methylacetamide hydrochloride] — lower, 92.298%
- Cl.O=C(CCl)Nc1ccccn1 [5-B14, 2-chloro-N-(pyridin-2-yl)acetamide hydrochloride] — lower, 98.0141%
- O=C(CCl)Nc1sc2c(c1C(=O)c1ccccc1)CCCC2 [4-A06, N-(3-benzoyl-4,5,6,7-tetrahydro-1-benzothiophen-2-yl)-2-chloroacetamide] — lower, 90.5758%
- COc1ccccc1[C@H]1C[C@H](NC(=O)CCl)C1 [7-L18, 2-chloro-N-[(1r,3r)-3-(2-methoxyphenyl)cyclobutyl]acetamide] — lower, 80.7533%
- CC(Cl)C(=O)NC1CCCN(c2ncccn2)C1 (centres unmarked) [7-C21, 2-chloro-N-[1-(pyrimidin-2-yl)piperidin-3-yl]propanamide] — lower, 83.3967%
- C=CC(=O)Nc1cccc(C(F)(F)CF)c1 [2-O12, N-[3-(1,1,2-trifluoroethyl)phenyl]prop-2-enamide] — lower, 84.6377%
- CCc1ccc(CC)c(C(=O)CCl)c1 [10-H14, 2-chloro-1-(2,5-diethylphenyl)ethan-1-one] — lower, 95.8504%
- CC(C)N(Cc1ccccc1)C(=O)CCl [5-J20, N-benzyl-2-chloro-N-(propan-2-yl)acetamide] — lower, 99.6953%
- Cc1ccc(C)c(NC(=O)C(C#N)=Cc2ccc3c(c2)OCCO3)c1 [8-L11, 2-cyano-3-(2,3-dihydro-1,4-benzodioxin-6-yl)-N-(2,5-dimethylphenyl)prop-2-enamide] — lower, 73.6234%
- C=CC(=O)NC[C@@H]1CCCN1c1ccccc1 [3-E03, N-{[(2S)-1-phenylpyrrolidin-2-yl]methyl}prop-2-enamide] — lower, 105.852%
- C=CC(=O)N1CCCC(c2nn(C)cc2C(N)=O)C1 (centres unmarked) [1-D07, 1-methyl-3-[1-(prop-2-enoyl)piperidin-3-yl]-1H-pyrazole-4-carboxamide] — lower, 92.9746%
- CC1CCCCC1NC(=O)C(C#N)=Cc1cccc(O)c1 (centres unmarked) [8-E07, 2-cyano-3-(3-hydroxyphenyl)-N-(2-methylcyclohexyl)prop-2-enamide] — lower, 76.3426%
- N#CC(=Cc1ccc(-c2cccc([N+](=O)[O-])c2)o1)C(=O)N1CCOCC1 [8-C07, 2-(morpholine-4-carbonyl)-3-[5-(3-nitrophenyl)furan-2-yl]prop-2-enenitrile] — lower, 81.3732%
- C=CC(=O)NCC1(c2nc(-c3ccccc3)cs2)CCOCC1 [2-A11, N-{[4-(4-phenyl-1,3-thiazol-2-yl)oxan-4-yl]methyl}prop-2-enamide] — lower, 89.7327%
- Cc1cc(C=C(C#N)C(=O)Nc2nccs2)ccc1-n1cncn1 [9-J14, 2-cyano-3-[3-methyl-4-(1H-1,2,4-triazol-1-yl)phenyl]-N-(1,3-thiazol-2-yl)prop-2-enamide] — lower, 94.4256%
- CC(Cl)C(=O)NCc1nc(-c2cccc(C#N)c2)c[nH]1 (centres unmarked) [6-F09, 2-chloro-N-{[4-(3-cyanophenyl)-1H-imidazol-2-yl]methyl}propanamide] — lower, 91.9139%
- Cn1cc(NC(=O)CCl)c(C(=O)NC2CCC2)n1 [5-A22, 4-(2-chloroacetamido)-N-cyclobutyl-1-methyl-1H-pyrazole-3-carboxamide] — lower, 108.101%
- Cc1ccc(NC(=O)CCl)cc1S(=O)(=O)N(C)C [4-A09, 2-chloro-N-[3-(dimethylsulfamoyl)-4-methylphenyl]acetamide] — lower, 104.55%
